Test results as given in PubChem BioAssay AID1347073 (National Center for Advancing Translational Sciences (NCATS), 2019).
Out of some 45,000 compounds screened, about 200 (0.44%) were called active. About 7% were inconclusive and are not listed. Calls come from the whole dose curve; as a rule, active = well fitted activation curve with a large enough effect; inconclusive = small, poorly fitted or top-dose-only effect; inactive = no such curve, though single readings can be large or run the other way. This is one part of the list.

assay: qHTS of TDP-43 Inhibitors: NCGC Sytravon Library Screen; conditions: yeast TDP-43 toxicity rescue, BacTiter-Glo growth, 24 h; at 46.1 µM (top of the series); note: 0% is about no effect; nearly all actives have a fitted effect of over 55% in size
Description: The goal of this project is to identify new chemical probes capable of reversing the toxicity associated with TDP-43 which is associated with frontotemporal lobar degeneration and amyotrophic lateral sclerosis. These compounds will provide a complementary approach to deciphering the tangled mechanisms of toxicity and protection that we have uncovered through genome-wide genetic screens and are beginning to uncover in a large-scale proteomics analysis with mass spectroscopy. To this end, a miniaturized assay was developed to be screened against the Molecular Libraries Small Molecule Repository (MLSMR) to discover TDP-43 inhibitors. Please note that in the set-up this yeast-based assay compounds that inhibit as TDP-43, have a read-out as activators. NIH Chemical Genomics Center [NCGC] NIH Molecular Libraries Probe Centers Network [MLPCN] Assay Submitter (PI): Susan Lindquist, Whitehead Institute/MIT MLPCN Grant: R21 NS060957
Dispense 2.5 microL yeast galactose medium per 1536-well plate, pin compound, dispense 2.5 microL TDP-43 expressing yeast in galactose medium at OD600=0.02 (pregrown in raffinose medium to mid-log phase) per well, incubate for 24 hr at 30 deg C, and cell growth will be measured using 5 microL of Bactiter/Glo reagent to entire plate and read using Luminescence Protocol in ViewLux.

Row | Compound | growth rescue (activation)
1 | O=C1CCN(C(=O)Cc2ccccc2[N+](=O)[O-])CC1 | inactive: 1.61%
2 | CSc1ncc(/C=C2/C(=O)NC(=O)N(c3ccc(Cl)cc3)C2=O)cn1 | inactive: -6.63%
3 | CCN1CCN(c2ccc([N+](=O)[O-])cc2C#N)CC1 | inactive: 8.26%
4 | COc1ccccc1C(=O)Nc1ccc2c(c1)CC1(C(=O)N(C)C(=O)N(C)C1=O)C1CCCN21 (stereo not drawn) | inactive: 5.89%
5 | Cc1cc(C)cc(N2C(=O)NC(=O)/C(=C/c3cccn3-c3ccc(Cl)cc3)C2=O)c1 | inactive: -10.4%
6 | COc1ccccc1OP(=O)(Nc1cccnc1)Oc1ccccc1OC | inactive: 23.9%
7 | C[C@]12C[C@@H](O)[C@H](O)CC1=CCC1C2CC[C@@]2(C)C1CC[C@@H]2O (stereo partly drawn) | inactive: -11.7%
8 | O=C1NC(=O)N(c2ccc3c(c2)OCO3)C(=O)/C1=C\c1ccc(-c2ccccc2C(=O)O)o1 | inactive: -0.718%
9 | CCOP(=O)(OCC)C1(O)C(=O)Nc2ccccc21 (stereo not drawn) | inactive: -0.269%
10 | CN(C)c1ccc(NC(=O)CN2C(=O)CN=C(c3ccccc3)c3ccccc32)cc1 | inactive: -0.335%
11 | Cc1cccc(C)c1OCC(=O)Nc1ccc(Cl)cc1C(=O)c1ccccc1 | inactive: 21.8%
12 | CCOc1cc(CNCCc2cccc(F)c2)ccc1OC | inactive: -11.2%
13 | O=C(N/N=C/c1c(O)n(Cc2ccccc2)c(=O)[nH]c1=O)c1ccccc1 | inactive: 2.77%
14 | Cc1ccc(N2C(=O)NC(=O)/C(=C\c3cc(C)n(-c4ccc(C(=O)O)cc4)c3C)C2=O)cc1 | inactive: 0.758%
15 | O=c1c2ccccc2nc(-c2cccs2)n1-c1ccccc1 | inactive: 5.51%
16 | O=c1c2ccccc2nc(CNc2ccccc2)n1-c1ccccc1 | inactive: 26.1%
17 | Cc1cccc(N2C(=O)NC(=O)/C(=C\c3ccc(N4CCOCC4)cc3)C2=O)c1 | inactive: 16.8%
18 | C[C@]12CCC3C(CC[C@H]4[C@H](O)[C@H](O)CC[C@]34C)C1CC[C@@H]2O (stereo partly drawn) | inactive: 14.2%
19 | Oc1cc2c(cc1CN1CCN(c3ccc(F)cc3)CC1)OCO2 | inactive: 8.49%
20 | CC(=O)[C@H]1CCC2C3CC[C@H]4C[C@@H](O)CC[C@]4(C)C3CC[C@@]21C (stereo partly drawn) | inactive: -10.8%

Row | Compound | growth rescue (activation)
21 | CN1C(=O)NC(=O)/C(=C\c2ccc([N+](=O)[O-])o2)C1=O | inactive: 0.911%
22 | O=c1[nH]c(O)c(N=Nc2ccc([N+](=O)[O-])cc2)c(=O)[nH]1 | inactive: -2.71%
23 | CCC(=O)N1CC(=O)Nc2ccc(Br)cc2C1c1ccccc1 (stereo not drawn) | inactive: -16.4%
24 | COC(=O)C1C2c3ccccc3OC1(C)N=c1s/c(=C/c3cnn(C)c3C)c(=O)n12 (stereo not drawn) | inactive: 24.3%
25 | O=C1/C(=C/c2cccc([N+](=O)[O-])c2)N2CCC1CC2 | inactive: -0.766%
26 | Oc1ccccc1C1NCc2ccccc2-n2cccc21 (stereo not drawn) | inactive: -11.1%
27 | C[C@]1(O)CCC2C3CC[C@H]4C[C@@H](OC(=O)CNC(=O)CN)CC[C@]4(C)C3CC[C@@]21C (stereo partly drawn) | inactive: 17.7%
28 | COc1cccc(C(=O)C2CCCN(Cc3ccc4nonc4c3)C2)c1 (stereo not drawn) | inactive: 14.3%
29 | COc1ccc(C(=O)C2CCCN(Cc3ccon3)C2)cc1OC (stereo not drawn) | inactive: -22.8%
30 | CCC(C)N1CCN(C(=O)COc2ccc3ccccc3c2)CC1 (stereo not drawn) | inactive: -6.67%
31 | C[C@]12CCC3C(CC[C@H]4[C@@H](O)[C@H](O)CC[C@]34C)C1CCC2=O (stereo partly drawn) | inactive: 26.5%
32 | CCOP(=O)(Cc1cc(C#N)oc1C)OCC | inactive: 9.87%
33 | CCc1ccccc1NC(=O)CNCc1ccccc1 | inactive: 6.91%
34 | CCCCCCn1c(O)c(C=NCCN2CCCCC2)c(=O)[nH]c1=O | inactive: 6.75%
35 | COc1cc(C=C2C(=O)NC(=O)NC2=O)ccc1OS(=O)(=O)c1ccccc1[N+](=O)[O-] | inactive: 5.85%
36 | Nc1cc(Cl)c2nonc2c1[N+](=O)[O-] | inactive: 22.1%
37 | O=[N+]([O-])c1ccc(NC2CCCC2)c2ccncc12 | inactive: 27.9%
38 | O=C(Cn1cc(C(=O)c2ccccc2)c2ccccc21)Nc1ccc(Br)cc1 | inactive: 7.75%
39 | COC(=O)C1=Nc2ccccc2/C1=C\c1c(O)n(-c2ccc(Br)cc2)c(=O)[nH]c1=O | inactive: 1.3%
40 | O=c1[nH]c(=O)n(-c2ccc(F)cc2)c(O)c1C=NCCN1CCCCC1 | inactive: 4.51%

Row | Compound | growth rescue (activation)
41 | COc1ccccc1CCNC1CCCC(C)C1 (stereo not drawn) | inactive: 6.9%
42 | CCN(CC)c1nc2c(C)cccn2c(=O)c1C=C1C(=O)NC(=O)NC1=O | inactive: -7.25%
43 | CN(C)S(=O)(=O)c1cc(NC(=O)COC(=O)Cc2ccccc2)ccc1Cl | inactive: -11.9%
44 | C[C@]12CCC3C(CC[C@H]4C[C@@H](O)CC[C@]34C)C1C[C@@H](O)[C@H]2O (stereo partly drawn) | inactive: 20.4%
45 | COc1ccc(N2CC2c2ccncc2)cc1 (stereo not drawn) | inactive: 0.0516%
46 | O=C1Nc2ccccc2/C1=C/c1nc2ccccc2c(=O)n1-c1ccc(O)cc1 | inactive: -10.8%
47 | CCN1CCN(C(=O)COc2ccc(S(=O)(=O)Nc3ccc(Cl)cc3)cc2)CC1 | inactive: 5.69%
48 | CCN(CC)CCN=Cc1c(O)n(Cc2ccccc2)c(=O)[nH]c1=O | inactive: -4.43%
49 | NC(=O)Cn1cc(C=C2C(=O)NC(=O)NC2=O)c2ccccc21 | inactive: 4.21%
50 | CNC(C(=O)c1ccccc1)C(OC)c1ccc(C)cc1 (stereo not drawn) | inactive: 1.46%
51 | COc1ccc(N2CCN(CCc3ccncc3)CC2)cc1 | inactive: -1.54%
52 | NC(Cc1ccccc1)c1csc(Nc2ccccn2)n1 (stereo not drawn) | inactive: 13.8%
53 | O=C(Nc1ccccc1)c1cc([N+](=O)[O-])ccc1N1CCNCC1 | inactive: 7.27%
54 | CN1CC(C(=O)c2ccc(Cl)cc2)C(c2ccc(N(C)C)cc2)C1 (stereo not drawn) | inactive: 8.53%
55 | Cc1ccsc1C(=O)C1CCCN(Cc2cccc(-n3cccn3)c2)C1 (stereo not drawn) | inactive: 2.85%
56 | CC1(C)OC(c2ccccc2)=C/C(=C/C=C2C(=O)NC(=O)NC2=O)O1 | inactive: -19.6%
57 | O=[N+]([O-])c1ccc(CN2CC=C(c3ccccc3)CC2)cc1 | inactive: 10.7%
58 | CN(C)S(=O)(=O)c1cc(NC(=O)C[N+]23CCN(CC2)CC3)ccc1Cl | inactive: -8.01%
